± gives the standard deviation of the averaged measurements. In all, about 33,000 sequences were measured (“E-score (dimensionless, -0.5 to 0.5)”: median about -0.049, highest 2% from about 0.37 on). Some of the results follow.
Tested on: T1, PmTbr T-box DNA-binding domain (GST fusion)
T1 sequence: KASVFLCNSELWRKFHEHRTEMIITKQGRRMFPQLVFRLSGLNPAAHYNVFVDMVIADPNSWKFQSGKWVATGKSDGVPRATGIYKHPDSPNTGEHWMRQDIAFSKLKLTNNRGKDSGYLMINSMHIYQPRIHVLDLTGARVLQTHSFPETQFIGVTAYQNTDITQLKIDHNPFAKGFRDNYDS
Assay: PBM E-score of 8-mer (E-score (dimensionless, -0.5 to 0.5)); Tbr is Tbrain of the sea star Patiria miniata (Pm) or the sea urchin Strongylocentrotus purpuratus (Sp); higher = stronger binding preference; most listed sequences are background and not binding sites
Settings: the construct has about 5 more residues each side
Procedure, shortened: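 Each ungapped 8-mer received an enrichment E-score from the Universal PBM Analysis Suite, averaged over duplicate arrays. The proteins were Tbr T-box DNA-binding domains, covering the whole T-box plus about five flanking residues, fused to GST and expressed in BL21 E. coli at 20 °C before glutathione affinity purification. Universal Agilent oligonucleotide arrays were made double-stranded by primer extension and incubated with 200 nM protein in PBS (pH 7.5). The arrays were then scanned and quantified, and every 8-mer was scored from probe intensities.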

Sequence | PBM E-score of 8-mer
CAATGCTA | -0.156 ± 0.039
CGTTTGCA | 0.0816 ± 0.0086
CTGTCGAA | 0.125 ± 0.0096
CAAGGAAC | -0.181 ± 0.032
AGGCCAAA | -0.26 ± 0.0079
AAGATTCG | -0.0299 ± 0.017
GCTTAAGA | -0.259 ± 0.0077
AAAGCAAG | -0.0735 ± 0.0072
AGTGATAA | 0.317 ± 0.052
AGCTAACG | 0.157 ± 0.031
TCAGGCAA | -0.187 ± 0.025
ATGCAGAC | -0.201 ± 0.073
CCCATGAA | -0.0505 ± 0.00062
CGGAGCTC | -0.248 ± 0.037
CTTCCAAA | -0.193 ± 0.023
ACTTAGAT | 0.109 ± 0.0052
GGACATAC | -0.0892 ± 0.092
AACAAATG | -0.0252 ± 0.075
CCTTTTAC | 0.0345 ± 0.095
AGTAAAAC | -0.0783 ± 0.055
ACTGCCGC | -0.092 ± 0.042
CGTGCATC | -0.188 ± 0.022
CCCGCGAA | 0.3531 ± 0.0014
ATCGTAAG | -0.227 ± 0.013
GAAGATCC | -0.101 ± 0.034

Sequence | PBM E-score of 8-mer
AACGTTTG | 0.0016 ± 0.0022
CAGCTAGA | -0.0602 ± 0.025
AGATAACA | 0.224 ± 0.069
GTGCTCTA | -0.209 ± 0.032
CATAGAAC | -0.0439 ± 0.09
CCGATACA | 0.031 ± 0.021
CCCTCTGC | 0.0209 ± 0.072
ATGCTGCG | -0.0411 ± 0.0053
AATGGCGG | -0.148 ± 0.0088
CTCAAACC | -0.2904 ± 0.0017
AATCGGTC | -0.191 ± 0.069
CCATCTTA | -0.0257 ± 0.081
CACAGTAG | 0.2113 ± 0.0006
CGAGGGAG | -0.0838 ± 0.048
ACTAGTTG | 0.0914 ± 0.07
GTACAGAC | -0.107 ± 0.013
AGTCTGCA | -0.133 ± 0.036
AAGTCTGG | -0.278 ± 0.022
ATCATATG | -0.0732 ± 0.1
CAGCAGCA | -0.0444 ± 0.023
GATAACGA | 0.0451 ± 0.049
GACTCGCA | 0.229 ± 0.025
ATGTAGAG | -0.23 ± 0.043
ATCCATCG | -0.0819 ± 0.025
CACAATGA | 0.0344 ± 0.009

Sequence | PBM E-score of 8-mer
CAAAATTG | -0.0773 ± 0.059
CCCTCTAG | -0.0329 ± 0.061
AGTCGGGA | 0.0954 ± 0.021
AACCCGGC | -0.239 ± 0.059
GACTGCGC | -0.107 ± 0.044
TAGGGGCA | -0.152 ± 0.014
CTTTAAAC | -0.149 ± 0.014
CGGATGAA | -0.299 ± 0.0067
GCTCTTCA | 0.0301 ± 0.094
CATACTCA | -0.0462 ± 0.021
ATAAAACA | -0.0497 ± 0.037
ACCTCGTA | 0.176 ± 0.033
CGCCACAC | 0.362 ± 0.014
CCATAGCA | -0.0644 ± 0.11
AACTTCGA | 0.0686 ± 0.023
CTCAGATA | -0.206 ± 0.0028
CTTATTGC | -0.0461 ± 0.023
AAGTATGT | -0.0434 ± 0.021
CAGGCGCA | -0.00442 ± 0.067
AGAACGTG | 0.221 ± 0.037
AATAACAT | -0.149 ± 0.06
CGGTGGGC | -0.131 ± 0.04
CAACCTTG | -0.0709 ± 0.09
AGCAGTGC | 0.0683 ± 0.13
TTGCGCAA | 0.108 ± 0.0064

Sequence | PBM E-score of 8-mer
TAGGCGGA | -0.154 ± 0.036
TAGGGTCA | -0.0997 ± 0.066
ACATCGAC | 0.223 ± 0.032
AATTTACT | -0.162 ± 0.059
AGACCGCC | -0.174 ± 0.068
CCCGGACG | -0.193 ± 0.045
ATCACCAA | 0.17 ± 0.016
ATCCCACC | 0.224 ± 0.0037
CGCATTTA | 0.156 ± 0.015
CCCAGAGG | -0.0696 ± 0.0034
ATCCGAAG | -0.183 ± 0.031
AGGCGCAA | 0.2862 ± 0.00067
TTCCGCAA | -0.0153 ± 0.014
ATATCCCG | -0.208 ± 0.061
CATAGTAC | -0.153 ± 0.047
GGTTCCGA | -0.27 ± 0.02
GAACCCTC | -0.247 ± 0.055
CGAACTAG | 0.133 ± 0.031
CAGTTTCA | 0.0662 ± 0.076
CGTCTATC | -0.284 ± 0.0085
CTTGTAGA | -0.126 ± 0.089
GTACCCAC | 0.0586 ± 0.07
GTAACATA | -0.0543 ± 0.019
GTTTGCTA | -0.00402 ± 0.0046
CCACTATC | 0.174 ± 0.049

Sequence | PBM E-score of 8-mer
GAACTTAA | -0.0678 ± 0.014
TTAACGAA | 0.0793 ± 0.059
AGGCACGC | 0.0549 ± 0.064
CTTCCGCC | -0.0413 ± 0.025
ATCATTGA | -0.0331 ± 0.14
GTATGACA | 0.18687 ± 7.1e-05
ATGAGAGC | -0.247 ± 0.086
TACGTCAA | -0.229 ± 0.025
CCTGAGCG | -0.106 ± 0.02
AACTAATG | -0.119 ± 0.078
ACCATTAA | -0.0404 ± 0.015
ATTCCTTA | -0.236 ± 0.046
AACCCAGA | 0.0359 ± 0.041
AACGGTGT | 0.242 ± 0.066
GCAGTGAA | 0.022 ± 0.013
CACACATA | 0.365 ± 0.021
CAGTACTC | 0.0138 ± 0.039
CTGTGCAA | -0.283 ± 0.027
CCGTGACC | -0.0636 ± 0.13
AGGCTCTC | -0.174 ± 0.016
CCCTAGTC | 0.000385 ± 0.0004
GAAGGCTC | -0.203 ± 0.036
CTGACGCA | 0.0742 ± 0.014
CCACCGTA | -0.0252 ± 0.013
TCTTCGAA | -0.0666 ± 0.028

Sequence | PBM E-score of 8-mer
CTAAGAAC | -0.0569 ± 0.022
CACATGAA | 0.0841 ± 0.0091
ATAAGAAC | -0.0365 ± 0.043
CAGCACGG | 0.00459 ± 0.12
ACGAGTAG | -0.255 ± 0.006
AACTTATA | -0.129 ± 0.0057
ATCAGCGG | -0.0604 ± 0.051
AATTTGCC | -0.0125 ± 0.015
CTTCGACC | -0.308 ± 0.016
ATACCAAT | -0.119 ± 0.021
GATTAGCC | -0.193 ± 0.061
CAATGCCG | -0.241 ± 0.057
TATTCTCA | 0.245 ± 0.031
AAATACGG | 0.0698 ± 0.0049
CCGTCAAG | 0.0946 ± 0.031
CAACGGGG | -0.016 ± 0.055
ATCACCAT | 0.155 ± 0.014
AACAATAA | 0.0426 ± 0.025
CATTTAAC | 0.171 ± 0.02
CCCAAGGA | -0.107 ± 0.058
CTCGCCAC | 0.323 ± 0.017
ATTCACCG | -0.106 ± 0.027
GTATCGAC | 0.069 ± 0.053
GCAACACA | 0.311 ± 0.0054
AACCATGT | 0.183 ± 0.045

Sequence | PBM E-score of 8-mer
ACCGAATG | -0.119 ± 0.0097
AGTCTAAC | -0.0883 ± 0.064
AAACGCCG | 0.0335 ± 0.0096
GAGAGGGC | 0.049 ± 0.037
ACCTCTGA | 0.0725 ± 0.053
CGAGATGA | -0.0792 ± 0.026
CCCCTGGC | -0.00462 ± 0.029
CAGTGAAG | 0.0395 ± 0.054
AACCTGGC | 0.195 ± 0.038
ATCTTGGG | -0.12 ± 0.0014
GACTAATC | -0.123 ± 0.012
GTCCCAAC | -0.193 ± 0.074
GTAGAGTA | -0.1984 ± 0.0017
GGTCACAA | 0.212 ± 0.048
CAAGGTGC | 0.4331 ± 0.00078
ACTAATTC | -0.0699 ± 0.029
GATGCATC | -0.166 ± 0.041
AAAGGCCC | -0.345 ± 0.0035
AGCATTCA | -0.156 ± 0.026
ATCCATAA | -0.202 ± 0.035
AGTGATTC | 0.135 ± 0.092
ACGGTAAT | -0.0598 ± 0.011
